Biological target: T1, human DNAJB6, cytosolic isoform B (human, UniProt O75190-2 1-241)
T1 construct: DNAJB6, human, cytosolic isoform B (UniProt O75190-2); monomeric mass 26.9 kDa; Polydisperse homo-oligomer with a varying number of subunits (34 to 55 by SEC-SAXS, about 20 in one GraFix fraction); For the mixed isotope cross-linking a 15N-labelled preparation of the same protein was mixed 1:1 with the unlabelled one; also called Mrj; DNAJB6 oligomers
Assay: cross-linking; DNAJB6 (about 60 μM) with Aβ42 at a 1:1 molar ratio, 3 mM BS3 for 15 min, in-solution digestion, LC-MSMS, crosslinks found with MassAI
Settings: both partners purified

binding result: binds
B1: Aβ42 peptide from human APP (Amyloid Precursor Protein) (peptide)
peptide: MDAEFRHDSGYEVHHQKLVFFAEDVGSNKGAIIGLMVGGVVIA
notes: extra start methionine that was added during recombinant expression; Aβ42 peptide of human amyloid precursor protein (APP). numbers count on: the Aβ42 peptide (D1 is the first residue, K16 and K28 the two lysines); The searches were made with and without the extra start methionine, so it may be partly removed
